B1: TPR 5TU (parent)
chain: GGAUCUUCUCGAUCUAACAAAAAAGACAAAUCUGCCACAAAGCUUGAGAGCAUCUUCGGAUGCAGAGGCGGCAGCCUUCGGUGGCGCGAUAGCGCCAACGUUCUCAACUAUGACACGCAAAACGCGUGCUCCGUUGAAUGGAGUUUAUCAUG

Variants at the background level are over-represented here.

The variants in this series derive from B1. Briefly: polymerase ribozyme fitness, log enrichment relative to wild type (log ratio); higher = more active; in vitro selection for triplet polymerase activity. In a few lines: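 After PCR construction and transcription, each subunit's mutant library from a heterodimeric triplet polymerase ribozyme was annealed with a biotinylated primer, the partner subunit and triplets. Incubation was frozen, at −7 °C, and extended constructs were gel-excised, bound to streptavidin beads and amplified by RT-PCR, in one selection round done in triplicate. Fitness is the logarithm of a genotype's enrichment divided by that of the wild type, from inverse-variance-weighted replicate averages of Illumina-sequenced inputs and outputs. The base of the logarithm is 2, and genotypes needed ≥10 input reads and ≥1 read per output.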
A49C C54A A91G: the “polymerase ribozyme fitness (log ratio)” value was no more than -4.2.
With G48C G50U U53A A91G C95U G117U, the “polymerase ribozyme fitness (log ratio)” value is no more than -4.2.
As to G48A A52G C116U, the “polymerase ribozyme fitness (log ratio)” value is -0.319.
The result for G48C C85A A142U reads no more than -4.2; that for G48U A52C C69A C85U U134G A150G, no more than -4.2.
As for A47U C76G G80U A91G A107G C116A, the “polymerase ribozyme fitness (log ratio)” value was no more than -4.2.
As to A47G G58C G112C, the “polymerase ribozyme fitness (log ratio)” value was -3.97.
Under G48A A49C G80A C85U stands no more than -4.2; under G48A G86A A89C G94A U151G, no more than -4.2.
The result for G48C G94A reads -0.224.
With G48U G62C C125G, the “polymerase ribozyme fitness (log ratio)” value was no more than -4.2.
For the variant G48C G50C G62A A66G C87U A89G G133A, the “polymerase ribozyme fitness (log ratio)” value is no more than -4.2.
As to G48U C93G, the “polymerase ribozyme fitness (log ratio)” value is -3.47.
With G48A C93G, the “polymerase ribozyme fitness (log ratio)” value was -3.69.
Take A47U U56A A122G U127C: the “polymerase ribozyme fitness (log ratio)” value was -2.55.
Take A49C C57U U102A: the “polymerase ribozyme fitness (log ratio)” value is no more than -4.2.
The result for A47U C54G G71U C116A A138C reads no more than -4.2; that for G48A A52U G86U, no more than -4.2.
Consider G48A G83A C95U U127G, for which the “polymerase ribozyme fitness (log ratio)” value was no more than -4.2.
On to A47U C85U A150C, for which the “polymerase ribozyme fitness (log ratio)” value is no more than -4.2.
The result for A47U C95U A115G reads -2.68.
Turning to G48U C69G C87A A91U C125U, the “polymerase ribozyme fitness (log ratio)” value is no more than -4.2.
The result for A49C C69U G84A C93U C96U C129G U148C reads no more than -4.2.
With A47G G84A G128C, the “polymerase ribozyme fitness (log ratio)” value is -3.37.
For the variant G48C G141A, the “polymerase ribozyme fitness (log ratio)” value was -3.64.
G48U C85A A110U C118U: the “polymerase ribozyme fitness (log ratio)” value is no more than -4.2.
With G48A G58C A89U A115U C116U U139C, the “polymerase ribozyme fitness (log ratio)” value was no more than -4.2.
Take G48A G83U U134C: the “polymerase ribozyme fitness (log ratio)” value was -1.42.
For A49C A52C C93U, the “polymerase ribozyme fitness (log ratio)” value is no more than -4.2.
As to G48C C54A G58C C75U U82C G141A U148G, the “polymerase ribozyme fitness (log ratio)” value was no more than -4.2.
On to A47U C96A G126A C129A A137U, for which the “polymerase ribozyme fitness (log ratio)” value was no more than -4.2.
A47G C96U U151A: the “polymerase ribozyme fitness (log ratio)” value was no more than -4.2.
As for A47G C93A C131U U134C, the “polymerase ribozyme fitness (log ratio)” value is -0.603.
Consider G48C C54U C85G U90A A138C, for which the “polymerase ribozyme fitness (log ratio)” value was no more than -4.2.
In the case of G48U G86U C87U C132G A137C, the “polymerase ribozyme fitness (log ratio)” value was no more than -4.2.
Regarding G48A C54U G94C, the “polymerase ribozyme fitness (log ratio)” value was -1.21.
On to A49C A52G C85A C118A, for which the “polymerase ribozyme fitness (log ratio)” value was no more than -4.2.
As for A47G U102G C114G C131U, the “polymerase ribozyme fitness (log ratio)” value was no more than -4.2.
The result for G48C A91U C114U reads no more than -4.2.
Take A47U G74U A97G U111G U148A: the “polymerase ribozyme fitness (log ratio)” value was no more than -4.2.
The result for A47U G80A A91C reads no more than -4.2; that for A47U C54U C114U, -2.94; that for G48C C54A U56G G65A G83U C93A C123G, no more than -4.2.
As for A47U G65C C96A A138G G152C, the “polymerase ribozyme fitness (log ratio)” value is no more than -4.2.
As for G48A C125U, the “polymerase ribozyme fitness (log ratio)” value is -0.97.
Turning to G48U A60C U90G G126A, the “polymerase ribozyme fitness (log ratio)” value is no more than -4.2.
For A49C C72A C108A U135G, the “polymerase ribozyme fitness (log ratio)” value is no more than -4.2.
Turning to G48U A52C C99U, the “polymerase ribozyme fitness (log ratio)” value is no more than -4.2.
On to A47G G58C C85U C87A A115G A119G A142G, for which the “polymerase ribozyme fitness (log ratio)” value is no more than -4.2.
Under G48A G71A A91G U102C stands no more than -4.2; under G48C U55A C103G, -0.533; under A49C, -4.19.
Under A49C C75A U102G G117U stands no more than -4.2; under G48A G86C C123A C125G, -3.94.
The result for A47G U53A C57A G84U C99U U134G G141C reads no more than -4.2; that for A47U G59C C85A G92U C123U G140U, no more than -4.2.
With G48U G83C G88A C93U U102A, the “polymerase ribozyme fitness (log ratio)” value is no more than -4.2.
Take G48C U104G A138U: the “polymerase ribozyme fitness (log ratio)” value was no more than -4.2.
For the variant G48U U56A G67A A73C G86U A107G, the “polymerase ribozyme fitness (log ratio)” value is no more than -4.2.
For G48C G126U, the “polymerase ribozyme fitness (log ratio)” value is -0.372.
On to G48A U55A, for which the “polymerase ribozyme fitness (log ratio)” value was -1.14.
In the case of A49C C57U C76A C93A, the “polymerase ribozyme fitness (log ratio)” value was no more than -4.2.
On to A47U C108G, for which the “polymerase ribozyme fitness (log ratio)” value was no more than -4.2.
G48U C93A A107G G126U U144G: the “polymerase ribozyme fitness (log ratio)” value is no more than -4.2.
G48C G59A C85U C129A: the “polymerase ribozyme fitness (log ratio)” value was -4.08.
Take A47U A91U: the “polymerase ribozyme fitness (log ratio)” value is no more than -4.2.
For the variant G48C U102G, the “polymerase ribozyme fitness (log ratio)” value is -2.42.
The result for G48A G67U A91C C96G C116U G124A reads no more than -4.2.
As for G48A C85A C123U U134C, the “polymerase ribozyme fitness (log ratio)” value was -1.46.
The result for G48U G83A C96U G128U G133U reads no more than -4.2; that for A47U G83U A122U, -0.574.
As to A49C C69G C75A C76U A137C U139C, the “polymerase ribozyme fitness (log ratio)” value was no more than -4.2.
A49C A73U C85U G100U C105U A138C: the “polymerase ribozyme fitness (log ratio)” value is no more than -4.2.
The result for G48A C76G U102G reads no more than -4.2; that for A47G C85U G136C G152U, no more than -4.2.
Consider G48C A120C, for which the “polymerase ribozyme fitness (log ratio)” value is -0.573.
In the case of A49C A52G G58C G84A C131G G133C U145A, the “polymerase ribozyme fitness (log ratio)” value was no more than -4.2.
The result for A49C C75U C118U reads no more than -4.2.
As for A47G C75G G92U U127A, the “polymerase ribozyme fitness (log ratio)” value is no more than -4.2.
As to A49C A52U G84A C105U G124U, the “polymerase ribozyme fitness (log ratio)” value was no more than -4.2.
For G48A G65A C87A A89G, the “polymerase ribozyme fitness (log ratio)” value was no more than -4.2.
With A49C A91U C95A A107U, the “polymerase ribozyme fitness (log ratio)” value is no more than -4.2.
A47U A49C G50C C57A A73G C87A G124U U146C: the “polymerase ribozyme fitness (log ratio)” value was no more than -4.2.

These data come from the RNAGym collection of RNA variant scans (doi:10.1073/pnas.2313332121).
